Data: article PMC6919601, “Identification of Plasmodium dipeptidyl aminopeptidase allosteric inhibitors by high throughput screening” (PLoS ONE, 2019)
About 230 (0.21%) of roughly 110,000 compounds showed an effect of 50% or more. The list shows a part of the results.

target: DPAP1 (Plasmodium falciparum, UniProt Q8IIJ9); assay: primary screen, percent inhibition; read by cleavage of a fluorogenic dipeptide substrate; higher = more effect of the substance; design: species or system P. falciparum D10 trophozoite lysates; single well
Sequence (Q8IIJ9 whole entry, looked up): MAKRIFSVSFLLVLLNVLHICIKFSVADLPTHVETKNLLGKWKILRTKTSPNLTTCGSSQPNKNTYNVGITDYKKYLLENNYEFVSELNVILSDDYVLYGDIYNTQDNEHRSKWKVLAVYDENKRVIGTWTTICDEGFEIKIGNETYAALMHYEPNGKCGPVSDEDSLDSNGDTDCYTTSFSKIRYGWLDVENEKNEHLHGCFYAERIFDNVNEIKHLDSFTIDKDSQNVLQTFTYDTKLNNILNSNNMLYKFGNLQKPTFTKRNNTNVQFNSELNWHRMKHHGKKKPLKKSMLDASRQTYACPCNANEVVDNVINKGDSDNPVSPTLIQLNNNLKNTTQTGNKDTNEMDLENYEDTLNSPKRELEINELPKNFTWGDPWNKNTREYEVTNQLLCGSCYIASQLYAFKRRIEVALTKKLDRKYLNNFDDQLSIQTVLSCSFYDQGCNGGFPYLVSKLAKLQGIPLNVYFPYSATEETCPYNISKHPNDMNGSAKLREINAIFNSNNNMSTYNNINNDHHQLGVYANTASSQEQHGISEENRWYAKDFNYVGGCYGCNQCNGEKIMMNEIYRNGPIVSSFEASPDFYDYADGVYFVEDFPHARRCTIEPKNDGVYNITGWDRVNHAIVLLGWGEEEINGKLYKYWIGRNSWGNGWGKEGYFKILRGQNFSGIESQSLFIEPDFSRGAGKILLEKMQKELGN
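Further: 30 min substrate incubation versus DMSO and 10 µM JCP410 controls.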

| SMILES | % Inhibition @ 10 uM [%] |
| --- | --- |
| C=CCN1C(=O)C2(NC(CC(C)C)C3C(=O)N(Cc4ccccc4)C(=O)C32)c2ccccc21 (centres unmarked) | 2.4 |
| COc1cc(CNCCc2ccc(OC)c(OC)c2)ccc1O | -7.28 |
| COc1ccc(OC)c(N(CC(=O)NC2CC3CCC2C3)S(=O)(=O)c2ccccc2)c1 (centres unmarked) | -6.77 |
| COc1ccc2ccccc2c1/C=C(\C#N)c1ccccc1 | -2.7 |
| O=C(Nc1cc(C(F)(F)F)ccc1Cl)c1ccc([N+](=O)[O-])cc1Cl | -0.636 |
| Fc1ccc(CCNCc2ccco2)cc1 | 1.83 |
| N#CC1(NC(=O)[C@H](Cc2c(F)cccc2F)NC(=O)c2ccc(-c3ccccc3Cl)nc2)CCS(=O)(=O)CC1 | -0.207 |
| COC(=O)c1ccc(N2Cc3ccc(Br)cc3C2)cc1 | 3.61 |
| COC(=O)c1nnn(-c2ccc(C)cc2)c1N | -2.79 |
| O=C(Nc1nnc(S(=O)(=O)N2CCOCC2)s1)C12C[C@H]3C[C@@H](C1)C[C@@H](C2)C3 | -7.53 |
| C(=C\c1ccccc1)/CN1CCN(Cc2ccncc2)CC1 | 3.48 |
| CC1CN(C(=O)c2cccc(Cl)c2)CC(C)O1 (centres unmarked) | 1.43 |
| C1CCCC(NCCN2CCOCC2)CCC1 | -2.95 |
| COc1ccc(-c2cccc(=O)o2)cc1 | -5.51 |
| COc1ccccc1C(=O)Nc1ccccc1C(C)C | -2.74 |
| CCCNc1nc(-c2ccc(Br)cc2)cs1 | -3.61 |
| CC(C)C(C(=O)N1CCCCC1)N1Cc2ccccc2C1=O (centres unmarked) | 1.34 |
| CCCn1c(O)c(C#N)c(C)c(CN2CCCCC2)c1=O | -0.703 |
| COc1ccc(-c2cc(C)no2)cc1S(=O)(=O)N1CCCN(Cc2ccc(F)cc2)C1 | -6.29 |
| O=C(CN(C1CCCCC1)S(=O)(=O)c1ccc(F)cc1)Nc1cccc(Cl)c1 | -1.57 |
| CSc1oc(-c2cccs2)nc1S(=O)(=O)c1ccc(Cl)cc1 | 4.69 |
| Cc1ccccc1CNC(=O)c1cc2cccc3c2n1CCO3 | -2.56 |

| SMILES | % Inhibition @ 10 uM [%] |
| --- | --- |
| O=C(CNc1cccc(Cl)c1)c1ccc(Cl)cc1 | -0.414 |
| CCc1ccccc1N(CC(=O)Nc1ccc(OC)cc1)S(=O)(=O)c1ccccc1 | 3.72 |
| Cc1[nH]nc2c1C(c1cc(Cl)ccc1OCc1cccc(F)c1)C(C#N)=C(N)O2 (centres unmarked) | -4.76 |
| O=C(c1ccc(Br)o1)N1CCN(c2ccc3nncn3n2)CC1 | -8.58 |
| Cc1cc(=O)n2nc(N3CCCC(C(=O)NCCCOC(C)C)C3)sc2n1 (centres unmarked) | -0.281 |
| CC1=C(C(=O)Nc2cc(C)ccn2)C(c2ccccc2Cl)C2=C(O)CCCC2=N1 (centres unmarked) | -2.88 |
| O=C1c2cccc3cccc(c23)C(=O)N1C1CCCCC1 | 2.92 |
| CCCn1c(CCCNC(=O)C2CCCCC2)nc2ccccc21 | 3.24 |
| CCOCCCNC(=O)c1cnn2c(C)c(Cc3ccccc3Cl)c(C)nc12 | 7.47 |
| COc1cccc(-c2nc(SCC(=O)Nc3nccs3)c(-c3ccccc3)[nH]2)c1 | 0.163 |
| COC(=O)/C=c1/sc2nc3ccccc3n2c1=O | 0.487 |
| COc1ccc(CC(=O)Nc2nccs2)cc1OC | 8.01 |
| N=c1c2c(n(Cc3ccccc3)c3ccccc13)CCC2 | -3.26 |
| O=C(c1ccc(Cn2cc(Br)cn2)o1)n1cccn1 | -3.13 |
| COc1ccc(C(=O)N2CCCN(C(=O)c3ccc(OC)cc3)CC2)cc1 | -3.32 |
| Cc1ccc(OCCCCCCN2CCOCC2)c(C)c1 | -2.18 |
| COc1ccc(N/C=C2/C(=O)NC(=O)N(c3ccccc3)C2=O)cc1Cl | 2.3 |
| CC(C)(Oc1ccc(Cl)cc1)C(=O)Nc1ccc(F)cc1 | -3.92 |
| Cc1ccccc1C(O)c1ccccn1 (centres unmarked) | -1.98 |
| CCOc1cc(C#N)c(-n2cccc2)cc1OCC | -0.703 |
| COc1ccc(CCNC(=O)Cc2c(C)c3ccc(O)c(C)c3oc2=O)cc1 | -4.39 |
| COC(=O)c1ccc(/C=C2/NC(=O)NC2=O)cc1 | 1.52 |

| SMILES | % Inhibition @ 10 uM [%] |
| --- | --- |
| O=c1c2cc3c(=O)n(-c4ccncc4)c(=O)c3cc2c(=O)n1-c1ccncc1 | 4.8 |
| Cc1ccc2nc(Cl)c3cc(C(=O)N4CCN(c5ncccn5)CC4)sc3c2c1 | -5.25 |
| COc1ccc(-c2cc(C(=O)N3CCc4ccccc4C3)no2)cc1 | 2.65 |
| COc1cc(/C=C2\SC(=O)N(CC(=O)N3CCOCC3)C2=O)ccc1OC(C)C | 1.67 |
| NC(=O)C1CCN(C2CC(=O)N(c3ccc(Cl)cc3)C2=O)CC1 (centres unmarked) | -0.305 |
| C=CCn1c(=N)n(CCCC)c2ccccc21 | -0.231 |
| COc1ccc(-c2[nH]nc3c2C(c2ccc(C(F)(F)F)cc2)C(C#N)=C(N)O3)cc1 (centres unmarked) | -0.105 |
| N#CC1C(=O)NC(=O)C([n+]2ccccc2)C1c1ccccc1Cl (centres unmarked) | 2.51 |
| COc1cccc2c1cc1c(=O)n(CC(=O)N3CCOCC3)nc(C)n12 | 4.65 |
| COC(=O)C1=C(O)/C(=C/c2cc(C)n(-c3cc(Cl)ccc3Cl)c2C)N=C1C | 18.3 |
| O=C(CN(Cc1ccc(Br)cc1)S(=O)(=O)c1ccc(Cl)cc1)N1CCCCC1 | -3.45 |
| Cc1ccc(C(=O)NCc2nc(-c3ccccc3)no2)cc1Cl | 2.14 |
| CCC(C)(C)NS(=O)(=O)c1cc2nc(O)c(O)nc2cc1C | 4.32 |
| Cc1ccc(OCCCCCN2CCCC2)c(C)c1 | 1.35 |
| CN1CCN(CCCNC(=O)Cn2ncc3c4ccccc4n(Cc4ccccc4)c3c2=O)CC1 | 0.137 |
| CC(=O)Nc1ccc(Nc2nc(-c3c(C)nc4sccn34)cs2)cc1 | -0.744 |
| O=C1NC(c2ccc(Oc3ccccc3)cc2)Oc2ccccc21 (centres unmarked) | 0.214 |
| CCOc1ccc(CCNS(=O)(=O)c2cc(-c3cc(C)no3)ccc2C)cc1OCC | -3.94 |
| CC1=CC2=NC(C(F)(F)F)(C(F)(F)F)NC(=O)N2C=C1 | -7.35 |
| N=C(NOC(=O)c1ccc2ccccc2c1)c1ccncc1 | 0.343 |
| O=C(Cn1ncc2c3ccccc3nc-2c1O)N1CCN(C(=O)c2ccco2)CC1 | 10.2 |
